# This is one part of the list.
# T1: UNK ZnF1-3 (human, UniProt Q9C0B0 31-174)
# T1 sequence: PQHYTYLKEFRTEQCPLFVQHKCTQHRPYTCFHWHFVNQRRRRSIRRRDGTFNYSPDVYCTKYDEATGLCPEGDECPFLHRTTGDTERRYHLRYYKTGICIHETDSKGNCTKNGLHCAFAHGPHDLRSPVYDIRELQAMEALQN
# B1: chr14:66974463:66974464:+_ENSMUSG00000022044_ENSMUST00000074523|mus_hu|mus_mus_mus_hu_False|18_78 (ssRNA)
# RNA: GGGAGUUCUACAGUCCGACGAUCUUGUAGGACGACUUAUUCAGGGGAUCGGCCAGGAAGCAAGAGCAGAACAAGGACACCAGCGGGAGCUCCUUCAUCUUCUCUUUGUAGGCAGCAAGAGUCAUGUUUCUGGGAUCUGGUGGCCAACAGAGGAUUGAGCAUCA
# B2: chr2:219525992:219525993:+_ENSG00000074582_ENST00000359273|hu_hu|FALSE|FALSE (ssRNA)
# RNA: GGGAGUUCUACAGUCCGACGAUCAAUCCAUUUCCCCCGAUACCAGAUAAAAUGGUUUCCAGGGCUGGGGACAAAUUCAAACUUAGUGGAAAUGCGGCCACUCUCAUGCUGAAGGUACGAAGUCUCGACACUGAGGUGCUGAGUCAACAGAGGAUUGAGCAUCA
# B3: chr6:40197388:40197389:+_ENSMUSG00000057716_ENSMUST00000061740|mus_mus|mus_mus_mus_hu_False|18_88 (ssRNA)
# RNA: GGGAGUUCUACAGUCCGACGAUCGAGACACUGGGGUGGAUUUAUUCUCAGUUUGGGUGGGUGCUAGCCACUAAGACUGUUAUUUUGGGAUUCAUGGCCUUGAAUAUCAAGAGGGAAGGGACGAGAAUGGAAAGAGUCAAGAGUCAACAGAGGAUUGAGCAUCA
# B4: chr3:193353255:193353256:+_ENSG00000198836_ENST00000392438|hu_mus|FALSE|FALSE (ssRNA)
# RNA: GGGAGUUCUACAGUCCGACGAUCAAUCAAAGAUUUCUUGAGCUUCCUGUGGUGGAUGCCUUUGUCGUCCUUCUGCAGCACCAGCUUCCGCAGCUCUUUGUUCUCCUUUUCCAGGCGCUCCAAGAUCCUCUGAUACUUUAACUGCAACAGAGGAUUGAGCAUCA
# B5: 37595425_37596737_584_3pUTR_ENSG00000125686_ENST00000300651|human|control|control (ssRNA)
# RNA: GGGAGUUCUACAGUCCGACGAUCCUGUACAAGCUCCGGACAGCUCACAGGAUUCUCCCCAUGGUGAGCCACUUUUACAUCACAAAGCUGUCCUGCAGGAUCUAACUGCACUUCCACAUAGAACAUAUCUGACGUGAUGUAACACAACAGAGGAUUGAGCAUCA
# B6: chr9:50413139:50413140:+_ENSMUSG00000039016_ENSMUST00000044051|mus_mus|motif|central (ssRNA)
# RNA: GGGAGUUCUACAGUCCGACGAUCGAUCUGGGCAAACCGACCGGUGAUGGCAAGAGUAGUGUCAAUGAAGCGAUCCACACAGCGGGAGAGGCAGUUUUCAGUGCGGGAGUCUAGCCGACUUCCUGGCUUCUCCACACACUUAUCCAACAGAGGAUUGAGCAUCA
# Target: T1, UNK ZnF1-3
# Assay: nsRBNS (natural sequence RNA bind-n-seq); RBNS binding buffer (assumed for nsRBNS): 25 mM Tris pH 7.5, 150 mM KCl, 3 mM MgCl2, 0.01% Triton X-100, 500 ug/ml BSA, 20 U/ml SUPERase-In, 4 C; UNK is unkempt and MSI1 is Musashi-1; names of the RNAs are library labels; protein concentration not given here; high values mean tight binding
row,Binder,binding signal [enrichment R]
1,B1,2.12
2,B2,1.11
3,B3,1.62
4,B4,0.512
5,B5,0.74
6,B6,1.55
